Where “and” joins values, the source holds several entries; their conditions need not be identical. Identical values can stand only once. Marks after values point to notes of the source that are not given here.
Legend:
[1] = format: in vitro ADME, human
Method: The stability of the […] pellets (as formulated in Examples 1 and 2) in human chyme at 37° C. was evaluated. Specifically, […] pellets were incubated in five different chyme specimens. […] The mean relative change in absorbance at 405 nm (ΔAb405) measured at each time point for all of the chyme specimens showing the release and relative stability of the […] beta-lactamase activity is presented in FIG. 3.

[2] = Half-life of P3A beta-lactamase activity in clarified chyme; format: in vitro ADME, human
Method: Stability of P3A in human chyme was evaluated in both raw and clarified chyme specimens. Incubations of P3A at 37° C. in the chyme specimens were performed in triplicate for each chyme specimen (1 to 5) and the mixed thyme matrix. Samples were removed at 0, 30, 60, 120, 180, 240, 300, and 360 minutes and analysed for beta-lactamase enzymatic activity using a CENTA beta-lactamase substrate. The beta-lactamase activity of the chyme/P3A specimens was determined based on the change of absorbance at 405 nm per min (ΔA405/min) in the first minute (linear portion) of the reaction. The ΔA405/min values were normalized to a 1 cm path length by dividing the ΔA405/min value by the determined path length. The mean of the normalized ΔA405/min values of the individual replicates for each chyme specimen were used to calculate the relative beta-lactamase activity at each time point.

[3] = In vitro biochemical assay of ceftriaxone hydrolysis by P1A or P3A dissoluted from pellets
Method: The beta-lactamase enzymatic activity of formulated pellets containing P1A or P3A (SYN-004) was determined using an in vitro biochemical assay with ceftriaxone as a substrate. The pellets were formulated as previously described in Examples 1 and 2. Specifically, P1A and P3A were dissoluted from formulated pellets in 50 mM Potassium Phosphate Buffer 6.8 buffer (pellets manufactured using P1A or P3A drug substance sprayed-dried onto sucrose cores, then sprayed-dried with a protective enteric coating). The concentration of P1A and P3A in the dissolution buffer was determined by HPLC analytical methods and the beta-lactamase enzymatic activity of the dissoluted pellets was evaluated for hydrolysis of ceftriaxone using an in vitro biochemical assay.

intestinal microbiome [4] = assay: P3A-mediated microbiome protection in humanized pigs, 16S rRNA sequencing of fecal DNA; format: in vivo, gnotobiotic pigs populated with human adult fecal microflora; details: humanized pigs treated with CRO
intestinal microbiome [5] = assay: Whole genome shotgun sequencing and comparative metagenomics of pig fecal samples; format: in vivo, gnotobiotic pigs populated with human adult fecal microflora; details: compared to Group 3 and Group 1
Method: In order to study the ability of P3A to protect the intestinal microbiome from antibiotics-induced (e.g., ceftriaxone (CRO)-induced) damage, pig fecal samples obtained from the study described above were subjected to additional genomic analysis. Specifically, the 16S rRNA gene V1V2 region was sequenced. In addition, fecal DNA was subjected to whole genome shotgun sequencing. Shotgun sequencing was performed using Illumina HiSeq RAPID RUN, targeting 100 bp single read with the aim to achieve approximately 10-20 million reads per sample (Table 6),
These sequence data were classified taxonomically to identify microbial communities associated with the pig fecal samples. Taxonomic classification was performed using bioInformatics algorithms and curated genome databases. Briefly, raw, unassembled shotgun sequence reads were probed against curated GeneBook bacterial and viral databases using GENIUS software package for rapid identification of bacteria communities as well as their relative abundance (Hasan of al., 2014, PLoS ONE 9:e97699; Lax et al., 2014, Science 345:1048). The analyses identified 139 bacterial strains, 79 species, and 35 genera among the treatment groups (Table 7). […]
As the number of sequence reads generated from each individual sample was variable, subsamples from each sample were chosen to represent a subset of 10 million reads. […]

B1: P3A: beta-lactamase of SEQ ID NO: 1; D276N mutation relative to P1A (protein)
chain: TEMKDDFAKLEEQFDAKLGIFALDTGTNRTVAYRPDERFAFASTIKALTVGVLLQQKSIEDLNQRITYTRDDLVNYNPITEKHVDTGMTLKELADASLRYSDNAAQNLILKQIGGPESLKKELRKIGDEVTNPERFEPELNEVNPGETQDTSTARALVTSLRAFALEDKLPSEKRELLIDWMKRNTTGDALIRAGVPDGWEVADKTGAASYGTRNDIAIIWPPKGDPVVLAVLSSRDKKDAKYDNKLIAEATKVVMKALNMNGK
For B1, the “duration of high-level P3A activity” value [1] was “at least 6 hours”, the “loss in overall beta-lactamase activity” value [1] was “less than 50%” and the “T1/2 (min) of beta-lactamase activity” value ([2]; Mixed Chyme, 37° C.) was > 300 min and 325 min. For the same molecule, the relative stability ([2]; chyme 3, 37° C., bound within the 360 min incubation) was > 360 min, the “T1/2 (min) of beta-lactamase activity” value ([2]; clarified Chyme 1, 37° C.) was 243 min and the “T1/2 (min) of beta-lactamase activity” value ([2]; clarified Chyme 2, 37° C.) was > 300 min and 342 min. The “T1/2 (min) of beta-lactamase activity” value ([2]; clarified Chyme 3, 37° C., extrapolated by linear regression from 120 to 360 min) was 394^(a) min, the “T1/2 (min) of beta-lactamase activity” value ([2]; clarified Chyme 4, 37° C.) was > 300 min and 334 min and the “T1/2 (min) of beta-lactamase activity” value ([2]; clarified Chyme 5, 37° C.) was > 300 min and 328 min. For the same molecule, the “fold greater catalytic rate of ceftriaxone than P1A” value ([3]; ceftriaxone as substrate) was 3.4 fold, the mean kcat value ([3]; ceftriaxone as substrate, enzyme dissoluted from formulated pellets, three concentrations) was 139 s⁻¹ and the “activity of dissoluted material for hydrolysis of ceftriaxone vs drug substance reference standard” value ([3]; dissoluted pellet material vs respective reference standard) was “comparable”. For the same molecule, the “protection of the microbiome (conclusion)” value (intestinal microbiome [4]) was “can protect the human microbiome”, the “abundance of gram negative organisms” value (intestinal microbiome [5]) was “less abundant” and the “abundance of gram positive organisms” value (intestinal microbiome [5]) was “overabundant”.

Reference: patent US12178917B2, “Beta-lactamase formulations and uses thereof” (Theriva Biologics, Inc., priority 2014, dated 2024)
